This is an account of results in PubChem BioAssay AID360 (National Center for Advancing Translational Sciences (NCATS), 2006).

Structures are written as SMILES. Out of some 48,000 compounds screened, about 550 (1.1%) were called active. Inconclusive results (about 4%) are left out. No stated cut-off is given here; in the data, active means potency below about 15 µM; inconclusive means mostly about 16 µM to 33 µM; inactive means weaker than that. This is one part of the list. A value given as a limit tells only on which side of the number the result lay.
Potency means the concentration at half of the fitted maximal effect.

The target in the test is Lysosomal acid glucosylceramidase (Homo sapiens) (UniProt P04062). Kind of test: Glucocerebrosidase.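 Further: the screen sought inhibitors.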 Conditions: purified enzyme, resorufin glucoside fluorescence (screen aimed at inhibitors), 20 min. A digest of the protocol: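 Compounds titrated against 0.2 nM normal enzyme, 30 uM resorufin beta-D-glucopyranoside substrate, citrate/phosphate buffer with taurocholate and tween-20, pH 5.9. Reaction ran 20 min at room temperature; fluorescence (Ex 548/Em 600) gave AC50.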
Sequence of UniProt P04062 (P04062 whole entry, looked up): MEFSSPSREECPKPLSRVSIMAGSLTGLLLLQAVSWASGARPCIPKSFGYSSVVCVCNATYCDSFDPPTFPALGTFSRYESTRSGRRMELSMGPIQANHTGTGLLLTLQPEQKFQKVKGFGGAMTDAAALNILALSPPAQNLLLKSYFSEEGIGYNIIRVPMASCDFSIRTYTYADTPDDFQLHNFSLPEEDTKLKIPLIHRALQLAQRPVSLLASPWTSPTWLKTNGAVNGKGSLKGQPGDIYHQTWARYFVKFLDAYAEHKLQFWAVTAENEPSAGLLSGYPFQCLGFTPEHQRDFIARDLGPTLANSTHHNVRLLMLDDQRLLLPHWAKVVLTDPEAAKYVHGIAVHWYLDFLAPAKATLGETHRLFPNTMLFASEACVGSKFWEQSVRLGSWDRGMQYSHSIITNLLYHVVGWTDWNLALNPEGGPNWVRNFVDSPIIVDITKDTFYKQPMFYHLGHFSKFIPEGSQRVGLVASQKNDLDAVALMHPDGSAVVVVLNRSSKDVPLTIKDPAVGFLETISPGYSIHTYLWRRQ
As to `CCCCNC(=O)CC1N=C2c3ccccc3N=C(SCC(=O)Nc3cccc(OC)c3)N2C1=O` (centres undefined), the Potency was inactive: > 76.9 µM. With `Cc1cc(NC(=O)CSc2nnc(COc3ccccc3)n2Cc2ccco2)no1`, the Potency is inactive: > 76.9 µM. As to `O=C(c1ccco1)N(Cc1cccs1)C1CCS(=O)(=O)C1` (centres undefined), the Potency is inactive: > 76.9 µM. For `COC(=O)CSc1nc(NC(C)C)nc(N2CCOCC2)n1`, the Potency was inactive: > 76.9 µM. As to `O=C1OCCC1Sc1nnc(-c2ccco2)o1` (centres undefined), the Potency is inactive: > 76.9 µM.

On to `CCCCc1c(C(=O)O)cc(OC)cc1C(=O)O`, for which the Potency was inactive: > 76.9 µM. Under `COC(=O)c1ccccc1NC(=O)c1cnc2sccn2c1=O` stands inactive: > 76.9 µM; under `CCCc1cc(=O)n2[nH]cnc2n1`, inactive: > 76.9 µM.

Consider `CC1CCN(C(=O)C2CCN(CCCc3ccccc3)CC2)CC1`, for which the Potency was inactive: > 76.9 µM.

Regarding `CCN(CC)c1ccc2cc(NC(=O)CCC(=O)O)c(=O)oc2c1`, the Potency is inactive: > 76.9 µM. Under `O=C(CSc1nc2ccc(S(=O)(=O)N3CCOCC3)cc2[nH]1)N1CCOCC1` stands inactive: > 76.9 µM; under `CN1C(=O)c2ccc(C(=O)NCc3ccccc3)cc2C1=O`, inactive: > 76.9 µM. In the case of `Cc1ccc2[nH]c(=O)c(CN(CCO)C(=O)NCc3ccccc3)cc2c1`, the Potency was inactive: > 76.9 µM. With `Cc1cccc(NC(=O)CCCCCN2C(=O)c3ccccc3C2=O)n1`, the Potency is inactive: > 76.9 µM. As for `Cc1nnc(NC(=O)Cc2ccc(OCc3c(C)noc3C)cc2)s1`, the Potency result was “inactive”. Turning to `Cn1c(C(=O)NCCCN2CCN(c3ccccc3F)CC2)cc2c(=O)[nH]c3ccccc3c21`, the Potency is inactive: > 76.9 µM. On to `O=C(CSc1nnc(-c2cc3ccccc3cc2O)n1Cc1ccco1)c1ccc(F)cc1`, for which the Potency is inactive: > 76.9 µM. For `Cc1ncoc1C(=O)Nc1ccccc1C(N)=O`, the Potency is inactive: > 76.9 µM. `CN(c1ccc(C(=O)NCc2ccccc2)cc1)S(C)(=O)=O`: the Potency is inactive: > 76.9 µM. Regarding `CCCCS(=O)(=O)NC1=NCN(CC)CN1`, the Potency was inactive: > 76.9 µM. Regarding `CCOc1cc2[nH]c(=O)n(CCCCC(=O)NC3CCCCC3)c(=O)c2cc1OCC`, the Potency was inactive: > 76.9 µM. With `CCOC(=O)N1CCN(C(=O)C(CC(C)C)NC(=O)C2CCCCC2)CC1` (centres undefined), the Potency was inactive: > 76.9 µM. As to `COC(=O)c1cc(NC(=O)CN2C(=O)CSC2=O)ccc1Cl`, the Potency is inactive: > 76.9 µM. Take `CC1CCN(S(=O)(=O)c2cc(Cl)ccc2Br)CC1`: the Potency was inactive: > 76.9 µM. With `CN(Cc1ccccc1)C(=O)c1cc(-c2ccc(Br)cc2)on1`, the Potency is inactive: > 76.9 µM. For `O=C(CCc1nc2ccccc2c(=O)[nH]1)OCc1nnc(-c2ccccc2)o1`, the Potency was inactive: > 76.9 µM. For `Cc1cccc2c(=O)cc(C)n(CC(=O)N3CCOCC3)c12`, the Potency was inactive: > 76.9 µM. As to `CCCNC(=O)C(NS(=O)(=O)c1cccc2nsnc12)c1ccccc1` (centres undefined), the Potency is inactive: > 76.9 µM. Under `CC(C#N)Sc1nc2ccccc2c(=O)n1-c1ccccc1` (centres undefined) stands inactive: > 76.9 µM; under `Cc1cc(C)nc(N2CCC(C(=O)NCc3cccc(C(F)(F)F)c3)CC2)n1`, inactive: > 76.9 µM. Regarding `Cc1occc1-c1nnc(SCC(=O)c2ccccc2)n1CC1CCCO1` (centres undefined), the Potency is inactive: > 76.9 µM. With `Cc1cc(Cl)c(S(=O)(=O)Nc2ccc3c(c2)OCCO3)cc1OCC(N)=O`, the Potency was inactive: > 76.9 µM. For `Cc1occc1C(=O)Nc1cccc(C(=O)NCc2ccccc2)c1`, the Potency was inactive: > 76.9 µM.

Consider `CC(=O)c1cccc(NC(=O)NCc2cccs2)c1`, for which the Potency was inactive: > 76.9 µM. As to `CCC(=O)Nc1ccc(NC(=O)c2cccc(OC)c2)nc1`, the Potency was inactive: > 76.9 µM. Take `O=C1c2ccccc2C(=O)N1c1n[nH]c(CCc2ccccc2)n1`: the Potency is inactive: > 76.9 µM. As for `COc1ccc(NC(C)=O)cc1NC(=O)CSc1nnc(-c2ccccn2)n1C`, the Potency was inactive: > 76.9 µM. Turning to `Cc1cc(=O)oc2cc(OCC(O)CN3CCN(c4ccc(F)cc4)CC3)ccc12` (centres undefined), the Potency is inactive: > 76.9 µM. Turning to `O=c1[nH]cc(COCc2ccccc2)c(=O)[nH]1`, the Potency was inactive: > 76.9 µM. Under `COc1cc(C2c3c(-c4ccccc4)n[nH]c3C(=O)N2c2ccccc2)ccc1O` (centres undefined) stands “inactive”; under `O=C(Oc1cccc(NC(=O)c2ccco2)c1)c1cccc(S(=O)(=O)N2CCCC2)c1`, “inactive”. Under `Cc1ccc(S(=O)(=O)NC(CC(=O)NC2CCCC2)c2ccco2)cc1` (centres undefined) stands inactive: > 76.9 µM; under `COc1cccc(OCC(O)CO)c1` (centres undefined), inactive: > 76.9 µM. `Cc1cc(C)nc(SCCc2ccncc2)n1`: the Potency was inactive: > 76.9 µM. For the molecule `COc1cc(SC)ccc1C(=O)NCCCOC(C)C`, the Potency was inactive: > 76.9 µM. `O=C(NC1=NCCS1)Nc1ccccc1`: the Potency was inactive: > 76.9 µM. Turning to `COc1ccc(S(=O)(=O)N2CCCN(Cc3cccc(F)c3)CC2)cc1`, the Potency was inactive: > 76.9 µM. As to `CC1Cc2nc(SCC(=O)Nc3ccc(F)cc3)n(C)c(=O)c2S1` (centres undefined), the Potency is inactive: > 76.9 µM.

Regarding `CCn1c(SCC(=O)C(C)(C)C)nnc1-c1cnccn1`, the Potency was inactive: > 76.9 µM. Regarding `Cc1c(C(=O)NCc2ccc3c(c2)OCO3)oc2ccc(S(=O)(=O)N3CCCCC3)cc12`, the Potency is inactive: > 76.9 µM. As for `COc1ccc(Nc2nc3c(c(=O)n(C)c(=O)n3C)n2CCO)cc1`, the Potency was inactive: > 76.9 µM.

In the case of `CC1CCN(C(=O)CN(C)S(=O)(=O)c2cccc3nsnc23)CC1`, the Potency was inactive: > 76.9 µM. For the molecule `N#Cc1nc(COc2ccccc2)oc1N1CCN(Cc2ccccc2)CC1`, the Potency was inactive: > 76.9 µM. Next, `COc1ccccc1NC(=O)C1=C(C)Nc2ncnn2C1c1ccccc1C` (centres undefined): inactive: > 76.9 µM. As to `Cc1cc(C(=O)NCCC2=CCCCC2)no1`, the Potency is inactive: > 76.9 µM.

For the molecule `CC(C)(C)c1ccc(-c2nc(C#N)c(NCc3ccncc3)o2)cc1`, the Potency was inactive: > 76.9 µM. `CS(=O)(=O)N(CC(=O)NC1CCCC1)c1cccc(F)c1`: the Potency is inactive: > 76.9 µM.

Regarding `O=C(CCSc1nc(-c2ccco2)cc(C(F)(F)F)n1)NCc1ccccn1`, the Potency is inactive: > 76.9 µM. As to `Cc1ccc(S(=O)(=O)N2CCN(C(=O)CSc3nnc(-c4ccco4)o3)CC2)cc1`, the Potency was inactive: > 76.9 µM.
